Measurements as given in paper PMC4336329 (PLoS ONE, 2015).
Out of some 310,000 compounds screened, about 14,000 (4.5%) showed an effect of 50% or more. The effect is printed as a negative number. The list shows a part of the results.

Target: human ether-à-go-go-related gene (hERG) potassium channel (human, UniProt Q12809)
Experiment: primary screen, population patch clamp on CHO cells stably expressing hERG
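Further: peak tail current of the secondary pulse compared with the same well before compound.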

Chain of human ether-à-go-go-related gene (hERG) potassium channel (Q12809 whole entry, looked up): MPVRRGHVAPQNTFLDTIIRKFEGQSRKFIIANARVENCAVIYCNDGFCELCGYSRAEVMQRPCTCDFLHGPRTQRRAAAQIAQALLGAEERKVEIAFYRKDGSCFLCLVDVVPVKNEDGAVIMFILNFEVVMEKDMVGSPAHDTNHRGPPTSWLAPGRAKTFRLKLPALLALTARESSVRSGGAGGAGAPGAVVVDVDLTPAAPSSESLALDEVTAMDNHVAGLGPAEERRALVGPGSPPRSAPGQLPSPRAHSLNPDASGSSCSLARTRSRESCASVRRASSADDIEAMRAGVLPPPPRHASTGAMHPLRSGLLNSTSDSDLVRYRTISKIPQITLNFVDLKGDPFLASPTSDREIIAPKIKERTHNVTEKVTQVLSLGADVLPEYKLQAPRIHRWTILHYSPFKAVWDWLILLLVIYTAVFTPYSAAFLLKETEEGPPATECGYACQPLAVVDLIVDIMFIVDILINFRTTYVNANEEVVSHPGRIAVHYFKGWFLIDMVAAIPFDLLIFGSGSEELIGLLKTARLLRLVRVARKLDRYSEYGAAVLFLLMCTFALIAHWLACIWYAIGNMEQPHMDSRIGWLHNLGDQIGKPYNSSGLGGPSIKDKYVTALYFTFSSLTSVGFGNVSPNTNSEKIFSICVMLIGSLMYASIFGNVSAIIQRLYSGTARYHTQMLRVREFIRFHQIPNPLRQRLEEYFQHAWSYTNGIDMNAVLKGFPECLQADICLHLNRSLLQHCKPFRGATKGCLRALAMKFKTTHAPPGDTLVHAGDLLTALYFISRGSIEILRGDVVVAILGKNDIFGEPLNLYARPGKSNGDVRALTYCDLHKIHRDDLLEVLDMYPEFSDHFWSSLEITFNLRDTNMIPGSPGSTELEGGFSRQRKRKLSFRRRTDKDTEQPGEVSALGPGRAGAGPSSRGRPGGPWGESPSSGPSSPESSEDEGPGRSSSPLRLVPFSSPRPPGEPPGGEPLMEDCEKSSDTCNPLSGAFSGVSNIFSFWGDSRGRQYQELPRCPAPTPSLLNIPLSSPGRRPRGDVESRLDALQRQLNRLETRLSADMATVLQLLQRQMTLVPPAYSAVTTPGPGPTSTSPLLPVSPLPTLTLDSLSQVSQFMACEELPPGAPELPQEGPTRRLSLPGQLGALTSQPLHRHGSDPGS

Compared with `CCC(C)NC(=O)C1CCN(S(=O)(=O)c2ccc(-n3cnnn3)cc2)CC1` (centres unmarked), `CN(Cc1ccc(F)cc1)C(=O)c1cccc(S(=O)(=O)N2CCN(c3ccccc3)CC2)c1` is lower in “hERG current change (%, negative = inhibition) at 10uM” value: 3.26% for the first, -19.9% for the second.

Compared with `O=C(O)C(=O)O.O=[N+]([O-])c1ccccc1S(=O)(=O)N1CCN(CC2CC3C=CC2C3)CC1` (centres unmarked), `CCC(=O)NC(C)C(c1cccs1)N1CCN(Cc2ccccc2)CC1` (centres unmarked) is higher in “hERG current change (%, negative = inhibition) at 10uM” value: -12.1% for the first, -11.6% for the second.

Compared with `c1ccc(-c2nnc(OCCN3CCOCC3)c3ccccc23)cc1`, `O=C(CCCN1C(=O)/C(=C/c2ccccc2Cl)SC1=S)NCCCN1CCOCC1` is lower in “hERG current change (%, negative = inhibition) at 10uM” value: 7.56% for the first, -36.6% for the second.

First: NC(=O)CC1C(=O)N(c2ccc(Cl)cc2)C(=S)N1NC(=O)c1cccc(F)c1 (centres unmarked)
Second: Cc1cc([N+](=O)[O-])nn1Cc1ccc(C(=O)N/N=C/c2ccc(N(C)C)cc2)cc1
The “hERG current change (%, negative = inhibition) at 10uM” value of the first is higher: 15.3% for the first, 9.61% for the second.

Going from `COC(=O)C(C)N1C(=O)S/C(=C/c2cc(C)n(-c3ccccn3)c2C)C1=O` (centres unmarked) to `CC(C)OC(=O)c1cc(-c2ccc(C=O)o2)ccc1Cl`, the “hERG current change (%, negative = inhibition) at 10uM” value rises from -11.5% to 16.3%.

First: CCCCC(C(=O)NC1CCCC1)N(C(=O)c1snc(C(N)=O)c1N)c1ccc(OCC)cc1 (centres unmarked)
Second: CC(OC(=O)Cc1ccsc1)C(=O)Nc1ccc(C(N)=O)cc1 (centres unmarked)
The “hERG current change (%, negative = inhibition) at 10uM” value of the first is higher: 18.3% for the first, 0.208% for the second.

Compared with `Cc1ccc2c(c1)CCCN2C(=O)c1c(C)noc1C`, `Cc1sc2nc3ccc(N4CCCCC4)nn3c(=O)c2c1C` is higher in “hERG current change (%, negative = inhibition) at 10uM” value: -12.8% for the first, -9.12% for the second.

First: C=CCn1c(=O)c(CCC(=O)Nc2ccc(N3CCOCC3)cc2)nc2cc(C(F)(F)F)ccc21
Second: Cc1sc2ncn(CC(=O)NCCCC(=O)N3CCN(Cc4ccc5c(c4)OCO5)CC3)c(=O)c2c1C
The “hERG current change (%, negative = inhibition) at 10uM” value of the first is higher: -0.43% for the first, -6.94% for the second.

Compared with `CC12CC(c3ccccc3O1)N(C(=O)c1ccco1)C(=S)N2c1ccccc1` (centres unmarked), `COc1ccc(S(=O)(=O)NCCc2ccccc2)cc1OC` is lower in “hERG current change (%, negative = inhibition) at 10uM” value: 6.08% for the first, 4.6% for the second.

Compared with `Cc1c(NC(=O)c2ccc(Br)o2)cccc1C(=O)O`, `CN1CCN(Cc2ccc(-c3ccc(Cl)cc3)o2)CC1` is lower in “hERG current change (%, negative = inhibition) at 10uM” value: 11.5% for the first, -31.7% for the second.

Going from `COCCCNc1nc2nonc2nc1N1C[C@H]2CC[C@H]1C2` to `COc1cc2sc3ccc(-c4ccc5[nH]ccc5c4)cc3c(=O)c2cc1OC`, the “hERG current change (%, negative = inhibition) at 10uM” value rises from 5.29% to 11.4%.

With `Cc1cc(C(c2ccc(O)cc2)c2cc(C)c(O)cc2C)c(C)cc1O` the “hERG current change (%, negative = inhibition) at 10uM” value was 0.783%.
